Reference: PubChem BioAssay AID2147 (National Center for Advancing Translational Sciences (NCATS), 2009)
The whole screen tested about 230,000 compounds, of which about 3,600 (1.6%) were called active. The inconclusive results got no clear call from the source; some entries with a clear call stand among them for comparison. Calls come from the whole dose curve; as a rule, active = well fitted inhibition curve with a large enough effect (not every such curve was filed as active); inconclusive = small, poorly fitted or top-dose-only effect, or another doubt; inactive = no such curve, though single readings can be large or run the other way. Where the call is inconclusive, the potency comes from a doubtful curve fit.

Biological target: Lysine-specific demethylase 4E (Homo sapiens) (UniProt B2RXH2)
Experiment: qHTS Assay for Inhibitors of Human Jumonji Domain Containing 2E (JMJD2E)
Settings: JMJD2E catalytic domain, FDH-coupled NADH fluorescence (FDH is formaldehyde dehydrogenase); series mostly up to 57.1 µM; activity change, negative = inhibition: at the top concentration
Note: nearly all actives have a fitted effect of over 50% in size.
Potency is the fitted concentration of half-maximal effect; tags give direction and shape of the fitted curve.
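Throughout, for activity change, negative = inhibition: 0% = wells with enzyme and -100% = buffer wells without enzyme.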

Chain of UniProt B2RXH2 (B2RXH2 whole entry, looked up, the tested form may be a part): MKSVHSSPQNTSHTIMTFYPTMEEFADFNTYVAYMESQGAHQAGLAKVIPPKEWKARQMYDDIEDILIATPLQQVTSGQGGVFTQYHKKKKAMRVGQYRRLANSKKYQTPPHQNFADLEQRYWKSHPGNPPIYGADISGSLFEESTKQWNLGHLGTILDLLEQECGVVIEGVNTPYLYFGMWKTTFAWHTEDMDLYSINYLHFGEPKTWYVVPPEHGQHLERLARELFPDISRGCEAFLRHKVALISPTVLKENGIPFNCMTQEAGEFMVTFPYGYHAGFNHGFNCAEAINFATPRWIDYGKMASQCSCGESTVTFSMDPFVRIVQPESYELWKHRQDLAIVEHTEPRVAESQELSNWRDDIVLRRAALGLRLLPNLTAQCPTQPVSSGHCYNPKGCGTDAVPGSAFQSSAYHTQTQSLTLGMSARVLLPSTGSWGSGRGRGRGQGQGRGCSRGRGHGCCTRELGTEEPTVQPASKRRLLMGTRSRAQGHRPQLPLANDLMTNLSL

**Q.** With `COc1ccc(S(=O)(=O)Nc2ccc(NC(C)=O)cc2)cc1` as the compound, how does the “activity change, negative = inhibition” value read?
**A.** The value was inactive: 5.63%.

**Q.** `O=C(CN1CCN(c2ccc(O)cc2)CC1)Nc1cc([N+](=O)[O-])ccc1Cl` was tested. Which Potency did it give?
**A.** The Potency was active: 14.1 µM.

**Q.** With `COc1ccc(S(=O)(=O)NC(CC(=O)N2CCc3ccccc32)c2ccco2)cc1` (stereo not given) as the compound, how does the “activity change, negative = inhibition” value read?
**A.** The value was inactive: -1.53%.

**Q.** How did the Potency turn out when `CCCCCCCNC(=O)COc1ccc2c(c1)C(=O)CC(C)(C)O2` was run?
**A.** Its Potency is inconclusive: 28.2 µM [inhibitor, partial curve].

**Q.** With `COc1ccc2nc(NC(=O)c3ccc(-c4cccc([N+](=O)[O-])c4)o3)sc2c1` as the compound, how does the “activity change, negative = inhibition” value read?
**A.** The value was inactive: -7.52%.

**Q.** `COC(CC(=O)NNC(=S)Nc1ccccc1)OC` was tested. Which “activity change, negative = inhibition” value did it give?
**A.** Its value is inactive: 2.83%.

**Q.** Which “activity change, negative = inhibition” value does the source give for `O=C(Nc1ccccc1C(=O)O)c1cccc(NC(=O)c2ccc(Br)o2)c1` here?
**A.** The value was inactive: 6.68%.

**Q.** For `CCOC(=O)N1CCN(C(=O)c2cccn3c(=O)c4cc(Br)ccc4nc23)CC1`, which Potency is on record?
**A.** Its Potency is inconclusive: 31.6 µM [inhibitor, partial curve].

**Q.** `CCOc1ccc(/C=C2/C(=N)N3OC(C)=CC3=NC2=O)cc1OC` was tested. Which Potency did it give?
**A.** Its Potency is inconclusive: 35.5 µM [inhibitor, partial curve].

**Q.** `CC(C)(C)C1=C(C#N)C(c2ccc3c(c2)OCO3)C(C#N)=C(N)O1` (stereo not given) was tested. Which Potency did it give?
**A.** Its Potency is inconclusive: 25.1 µM [inhibitor, partial curve].

**Q.** `CCOc1ccc(NC(=O)Nc2ccccc2C(N)=O)cc1` was tested. Which Potency did it give?
**A.** Its Potency is inconclusive: 25.1 µM [inhibitor, partial curve].

**Q.** Which Potency does the source give for `CN(C)c1cncc(C(=O)O)c1` here?
**A.** The Potency was inconclusive: 25.1 µM [inhibitor, partial curve].

**Q.** With `Cc1ccc(C)c(-n2c(SCC(N)=O)nnc2-c2ccccn2)c1` as the compound, how does the “activity change, negative = inhibition” value read?
**A.** The value was inactive: -5.93%.

**Q.** How did the Potency turn out when `COc1cc(/C=N/NC(=O)C(C)Nc2n[nH]c(=O)[nH]c2=O)ccc1O` (stereo not given) was run?
**A.** Its Potency is inconclusive: 35.5 µM [inhibitor, single point].

**Q.** `CCn1cc(C(=O)NCCCN(C)C)c(=O)c2cc(F)c(N3CCN(C)CC3)cc21` was tested. Which Potency did it give?
**A.** Its Potency is inconclusive: 35.5 µM [inhibitor, partial curve].

**Q.** Which Potency does the source give for `CCN(CC)c1ccc(/C=N/NC(=S)NCc2ccccc2)cc1` here?
**A.** Its Potency is inconclusive: 28.2 µM [inhibitor, partial curve].

**Q.** Which “activity change, negative = inhibition” value does the source give for `C#CCOCCOCCOCCNc1nc(N2CCN(C(=O)[C@H](C)n3cc(CCCN=C(N)N)nn3)CC2)nc(N2CCN(C(=O)[C@H](Cc3ccc(O)cc3)n3cc(CCO)nn3)CC2)n1` here?
**A.** Its value is inactive: -28.5%.

**Q.** `CCc1cc(-c2n[nH]c(=S)n2-c2cccc(C)c2)cs1` was tested. Which Potency did it give?
**A.** Its Potency is inconclusive: 39.8 µM [inhibitor, single point].

**Q.** For `CC(C)c1ccc(/C=C/c2ccc(=O)n(C)n2)cc1`, which Potency is on record?
**A.** Its Potency is inconclusive: 28.2 µM [inhibitor, partial curve].

**Q.** For `CCCCCn1c(SCc2cccc(C)c2)nc2c1c(=O)[nH]c(=O)n2C`, which “activity change, negative = inhibition” value is on record?
**A.** Its value is inactive: 8.35%.
